# Measurements published in PMC10668032.
# The list shows a part of the results. At the low end of the ranking the order means little.
# Molecular target: SIX1-Q177R homeodomain (UniProt Q15475)
# Experiment: universal protein binding microarray
# Settings: Universal all-10-mer PBM (8x60K, AMADID 030236), 300 nM GST-tagged protein, Alexa Fluor 488 anti-GST; buffer, salt, pH and temperature not stated; high values mean tight binding; most listed sequences are background and not binding sites; double strand, one strand shown
row,Sequence,binding signal [E-score]
1,CAATAAGG,-0.233
2,ACGTAAGT,-0.206
3,CGTCGGAA,-0.116
4,GCCTGCCC,-0.104
5,CGTACGTA,-0.161
6,CGGTGGAC,0.0967
7,CAGCAATC,-0.137
8,CTCCGTTC,0.182
9,CGACAGAC,0.0483
10,ACACCCGC,0.462
11,GCCTCAGC,-0.209
12,CCTGAAGA,-0.0439
13,GCATGTCA,-0.215
14,ATACGGTG,0.276
15,AGGATTAG,-0.0343
16,CAATAAAG,-0.265
17,CAACGTTG,-0.214
18,AAGGGCCC,-0.117
19,CAATCGCG,0.0223
20,ACAGATTC,-0.0939
21,TGGCACCA,0.137
22,CCCCGGCC,0.233

row,Sequence,binding signal [E-score]
1,AACGAATG,-0.24
2,CAACTGGG,0.136
3,CCTATCCG,-0.126
4,ATACAAGC,-0.0959
5,ATATAAAA,-0.0786
6,CCAACGTA,0.0754
7,CAGTCACA,0.171
8,AGTAAGGG,0.0946
9,CTCACAGA,-0.00915
10,CTTAAGCC,-0.214
11,AAGGTCTG,-0.147
12,GCAGATGA,-0.101
13,ACTGGAGA,-0.14
14,ACCTTTGG,-0.0212
15,CCATGCGA,-0.0467
16,GTAAATGA,0.0678
17,CGCACCAC,0.206
18,AATGCGCG,0.135
19,GCGCCATA,-0.0831
20,ACAGAGAG,-0.21
21,CCAACGAG,-0.0589
22,CCGGCCGA,-0.0415

row,Sequence,binding signal [E-score]
1,CCTTACGA,0.0139
2,CTTGTCCA,-0.0179
3,ACATTATA,-0.032
4,CTATCCAG,-0.224
5,CGGGTGTC,0.487
6,ATACGCCG,0.0816
7,GAGGCTGC,-0.132
8,ACTCTCCG,0.0305
9,AGTTGCGC,-0.256
10,CTCGTCTC,-0.104
11,ACGTCTCA,0.0643
12,TAAAGTAA,-0.165
13,CCCAAGAA,0.101
14,GAGCACGA,0.105
15,TTCGTCAA,-0.0504
16,CTAGTTGA,-0.0506
17,CAATGCCA,-0.216
18,GGAGCGAC,-0.0865
19,AAAGTTAA,-0.268
20,CGATTCAC,0.0658
21,CTCACACC,0.393
22,ACAGTTCC,-0.212

row,Sequence,binding signal [E-score]
1,ATATTGCC,-0.2
2,TCCCGTAA,-0.142
3,CAGTAGAG,-0.0025
4,AGAATTTA,-0.18
5,GCTTGACA,0.127
6,ACCACCGG,0.0921
7,ATTCTGTG,0.0189
8,CTTAATTA,-0.0265
9,CTAATGGA,-0.0333
10,ACGTCACT,-0.0221
11,GGTGAGGA,-0.0479
12,GACGTGCA,-0.0419
13,CCTTAAAA,-0.118
14,AAATATAG,-0.0852
15,GGGATAAC,0.118
16,AGTAGTAC,-0.0327
17,ATAAATTG,0.124
18,CGGATGCA,-0.0318
19,GGCGATGA,-0.0206
20,AGACACGA,0.369
